Assay results published in PMC12136788.
The other results are listed elsewhere or left out.

B1: 52941175_52943467_2140_CDS_ENSG00000134744_ENST00000257177|human|control|control (ssRNA)
RNA: GGGAGUUCUACAGUCCGACGAUCCCGUGCAACAUUCCUCUUGACUGAAAAUGGAUCUUCAAUGGCUAUUCGCCUUUUAGGCCAGUUUUUAUUUUCUCUUGUUAAAAUAUCUUGUAUCCGUACACAUAUGACAUAUUCCUCCAACAACAGAGGAUUGAGCAUCA
B2: chr8:95500983:95500984:-_ENSG00000164944_ENST00000437199|hu_hu|hu_hu_hu_mus_True|8_68 (ssRNA)
RNA: GGGAGUUCUACAGUCCGACGAUCAGAACACAUCUAUCGAGUAAAGGACCGUACAUGACGGCCUCUAACCACUGCCUCACUAACAAACUUUCCUCUCGAGCCUCCACUGCCGCUAUUUGUACUAGCCCCAGGAAGGUCCAGGCCCAACAGAGGAUUGAGCAUCA
B3: chr8:104447970:104447971:+_ENSG00000164934_ENST00000297579|hu_hu|hu_hu_hu_mus_False|68_108 (ssRNA)
RNA: GGGAGUUCUACAGUCCGACGAUCAUAUACCUCCCUGCUUCGGCUCUUGUCCACAGGAAAGAUUCUAAUAGAUUUAUCAAAGCUGGCAGACACAAAUUCCUUCCCAGUGGGAGAGUAGUCCACAUCAAGUACUGCAGACACGUGCAACAGAGGAUUGAGCAUCA
B4: 21082334_21082454_120_5pUTR_ENSMUSG00000007564_ENSMUST00000007708|mouse|control|control (ssRNA)
RNA: GGGAGUUCUACAGUCCGACGAUCUUUCUAUCAGGCAGCAGCGAGCUCCAGGCGGAAUCCGGGAUCGGGCGGGGCGGUGCCGGGGAAAGGACGCAAAGCGGACGUGGGGGCGCCCGAGCCGCCCUACAGGGGCCGUCCCGCCGCCAACAGAGGAUUGAGCAUCA
B5: chr7:7679991:7679992:-_ENSG00000106399_ENST00000396682|hu_hu|hu_hu_hu_mus_False|58_98 (ssRNA)
RNA: GGGAGUUCUACAGUCCGACGAUCUGGGAUGAAUCUUUUCCAGCCUCCCCACGAAGCACACGGGCCGGUCGAUAUACUGAGCUAGCAUGCUGGCGUUGACGCGCGCUUUGGGGAGCUGCAUUAUGUCCUCCAUGAUUCUGCCGCCAACAGAGGAUUGAGCAUCA
B6: 102313770_102313890_7086_3pUTR_ENSG00000166135_ENST00000299163|human|control|control (ssRNA)
RNA: GGGAGUUCUACAGUCCGACGAUCUGGCUGCCCAGGCAGAAGAGGCAUAAGACACUUCCUGUUUCUCUUCCUCUAGGGUGAGUUUAGGUACUAGACUCUUCUGUCUACCCUCAACUCAAUAUGGUUUAUCUAAGGUGUUUCUCGCAACAGAGGAUUGAGCAUCA
B7: chr8:42798479:42798480:+_ENSG00000168172_ENST00000307602|hu_mus|motif|central (ssRNA)
RNA: GGGAGUUCUACAGUCCGACGAUCCGAAUGCUCCCCAAUGAGGUUCACGUCAGGAAGGGUGAAAUCAUUAAUCUGCUGUCCGGAAAUCUCAUGAUUGUAAUCCAAGAUGCCUUUUAAAAUUUUCUUUAAAUUGCUGAUCUUUAACAACAGAGGAUUGAGCAUCA
B8: chr1:84754351:84754352:-_ENSMUSG00000026219_ENSMUST00000027421|mus_mus|motif|central (ssRNA)
RNA: GGGAGUUCUACAGUCCGACGAUCAGCAUGAUUUUUCAGAACAUCCUUCAGAAGUUCAGCAUCAGCAAAAUAAAUUAUCCGGAGAAUUGCUCUAAGGCACUUGUGUCUGACCGCAGGGCCUGCUGAGGAGCUGUACACUUCAUACAACAGAGGAUUGAGCAUCA
B9: chr6:72301320:72301321:+_ENSMUSG00000058706_ENSMUST00000077783|mus_hu|motif|central (ssRNA)
RNA: GGGAGUUCUACAGUCCGACGAUCUAGCCAGGACGGUCUGGAUCUCCUGAUUUCAUGAUCCGCCCGCCUCGGCCUCCCGGCCUCUUCCUUUACUUAAUAAGAAUGCGGUCUAAAUUUUCAGGUGCCAAGCCCCCAAACUCCUCUCAACAGAGGAUUGAGCAUCA
B10: chr2:152658766:152658767:-_ENSG00000162980_ENST00000295087|hu_hu|motif|central (ssRNA)
RNA: GGGAGUUCUACAGUCCGACGAUCACUCUGAAAUUCACUUUAACUGCUUGACAUAUAAUUUAAUACUUAAAAAUAAUAUAGCGGAGUUGUUUAAUAGUAUUUAUAGAAUGCUACUUUUCUGGGUAGACAUGUUUCACAAAACAGCAACAGAGGAUUGAGCAUCA
B11: chr10:17279241:17279242:+_ENSG00000026025_ENST00000224237|hu_hu|FALSE|FALSE (ssRNA)
RNA: GGGAGUUCUACAGUCCGACGAUCUUUUUAUUCAAGGUCAUCGUGAUGCUGAGAAGUUUCGUUGAUAACCUGUCCAUCUCUAGUUUCAACCGUCUUAAUCAGAAGUGUCCUUUUUGAGUGGGUAUCAACCAGAGGGAGUGAAUCCAACAGAGGAUUGAGCAUCA
B12: chr4:115894766:115894767:+_ENSMUSG00000028698_ENSMUST00000030464|mus_hu|mus_mus_mus_hu_True|1_68 (ssRNA)
RNA: GGGAGUUCUACAGUCCGACGAUCUUCCACACGGAAAUGUACUUCGGGUUUUCCAACGGCCAGUACCGUCCAGCCAAAACUACCCGAACAGGGUCCUCCCCCUCUCUCCUACAGAACACAACAAAAUGCCCCCGAACCCCGAACCAACAGAGGAUUGAGCAUCA
B13: chr4:107939044:107939045:-_ENSMUSG00000034636_ENSMUST00000043616|mus_hu|FALSE|FALSE (ssRNA)
RNA: GGGAGUUCUACAGUCCGACGAUCACUGAUAAUGUCUGUAAUCGUGAUAUCAGCAUUCACACCUGUGGCAUCAAGUUCCACUAACUUGUGGUGGCAGAAAGCUUUCCGGAAAGCAACAGCAGAGAUCUUUGCUUUGCGAAUGCACAACAGAGGAUUGAGCAUCA
B14: chr3:119450855:119450856:-_ENSMUSG00000028134_ENSMUST00000029780|mus_hu|mus_mus_mus_hu_False|8_98 (ssRNA)
RNA: GGGAGUUCUACAGUCCGACGAUCUGUGGUGCCACUAAGAGGUGUAUUUGCUGUCUGGACAGCUGUCACAGCUUGAAGAACUGCCUGAGCACGUUGGUUUAAUGUAUUAUCUGUCUUUAGUUCUUUGUGAUUGGAGUACUGGAUCAACAGAGGAUUGAGCAUCA

Target: T1, UNK ZnF1-3 (human, UniProt Q9C0B0 31-174)
T1 sequence: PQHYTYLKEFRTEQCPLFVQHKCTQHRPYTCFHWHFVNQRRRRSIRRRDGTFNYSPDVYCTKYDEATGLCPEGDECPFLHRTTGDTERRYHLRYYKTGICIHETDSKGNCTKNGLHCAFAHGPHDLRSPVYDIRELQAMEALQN
Assay: nsRBNS (natural sequence RNA bind-n-seq); RBNS binding buffer (assumed for nsRBNS): 25 mM Tris pH 7.5, 150 mM KCl, 3 mM MgCl2, 0.01% Triton X-100, 500 ug/ml BSA, 20 U/ml SUPERase-In, 4 C; UNK is unkempt and MSI1 is Musashi-1; names of the RNAs are library labels; protein concentration not given here; high values mean tight binding

Binder	binding signal [enrichment R]
B1	0.732
B2	0.925
B3	1.4
B4	0.641
B5	0.545
B6	0.594
B7	1.17
B8	2.6
B9	0.712
B10	2.19
B11	0.661
B12	1.11
B13	1.11
B14	0.821
